{"source": "patent US5100874A", "about": "“Hydroxamic acid tetrapeptide derivatives” (Fuji Yakuhin Kogyo Kabushiki Kaisha, priority 1987, dated 1992)", "type_in_all_cases": "biochemical", "key": {"[1]": {"molecular_target": "T1, tadpole-derived collagenase (Aquarana catesbeiana, UniProt Q11133)", "T1 construct": "collagenase from tadpoles; from tissue", "T1 sequence (Q11133 89-384)": "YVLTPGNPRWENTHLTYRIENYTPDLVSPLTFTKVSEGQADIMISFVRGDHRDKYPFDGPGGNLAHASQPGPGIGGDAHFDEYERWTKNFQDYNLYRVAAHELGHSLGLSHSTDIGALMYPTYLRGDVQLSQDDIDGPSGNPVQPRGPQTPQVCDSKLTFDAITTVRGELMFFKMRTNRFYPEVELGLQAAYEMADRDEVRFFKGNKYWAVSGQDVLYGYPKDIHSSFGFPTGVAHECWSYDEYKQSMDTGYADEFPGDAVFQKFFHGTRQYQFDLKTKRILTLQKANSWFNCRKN", "details": "read-out: IC50 Tadpole collagenase", "procedure": "(§1) (1) Inhibitory activity against collagenases\n(§2) The inhibitory activity against human fibroblast collagenase (collagenase derived from human fibroblasts), tadpole-derived collagenase and bacteria (Clostridium)-derived collagenase was assayed in accordance with the method of Nagai [see Ensho, 4(2), 123 (1984)] using a fluorescence-labeledcollagen (FITC-derivatized bovine type I collagen)."}, "[2]": {"test_system": "bacteria (Clostridium)-derived collagenase", "test": "Inhibitory activity against bacteria (Clostridium)-derived collagenase (method of Nagai, FITC-derivatized bovine type I collagen)", "procedure": "as §1, §2"}, "[3]": {"test_system": "sword bean-derived urease", "test": "Inhibitory activity against urease (method of Kobashi et al.)", "procedure": "(2) Inhibitory activity against urease\nThe inhibitory activity against urease was assayed in accordance with the method of Kobashi et al. [see Biochem. Biophys."}, "trypsin": {"test_system": "trypsin", "test": "Inhibitory activity against trypsin (method of Laskowski, thermally denatured casein substrate)", "procedure": "(3) Inhibitory activity against thermolysin, trypsin and α-chymotrypsin\nThis was assayed in accordance with the method of Laskowski [see Meth. Enzymol., 2, 8 (1955)] using a thermally denatured casein as substrate for the respective enzymes (i.e. thermolysin, trypsin and α-chymotrypsin)."}}, "note": "For some of these results: Part of at least one peptide drawing is inferred or uncertain, most often the ends. For some of these results: For at least one compound, name, drawing or mass did not settle the structure. Square brackets hold non-standard residues; d marks the D form. Peptide text beside a SMILES is read from it. * marks the point of attachment. Benzoyl(4-OH) = O=C(c1ccc(O)cc1)*; 4Abz = Nc1ccc(C(=O)O)cc1; Boc = CC(C)(C)OC(=O)*; Bz = O=C(c1ccccc1)*; NHOH = ON*"}
{"compound": "CC(C)C[C@@H](NC(=O)[C@@H]1CCCN1C(=O)CNC(=O)c1ccc(N)cc1)C(=O)N[C@H](C)C(=O)NO", "note": "[Example 6] (H-[4Abz]GP[dL][dA]-{NHOH}; N-terminus and C-terminus assumed)", "values": [{"measurement": "IC50", "setting": "[1]", "value": 1100, "unit": "nM"}]}
{"compound": "CC(C)C[C@@H](NC(=O)[C@@H]1CCCN1C(=O)CNC(=O)c1ccc(O)cc1)C(=O)N[C@H](C)C(=O)NO", "note": "[Example 7, p-Hydroxybenzoyl-glycyl-L-prolyl-D-leucyl-D-alanylhydroxamic acid] ({Benzoyl(4-OH)}-GP[dL][dA]-{NHOH})", "values": [{"measurement": "Inhibition (%) Bacterial collagenase", "setting": "[2]; at 4.0 × 10^-3 M", "value": 20.9, "unit": "%"}]}
{"compound": "CC(C)C[C@H](NC(=O)[C@@H]1CCCN1C(=O)CNC(=O)OC(C)(C)C)C(=O)N[C@H](C(=O)NO)C(C)C", "note": "[Example 18, BocGlyProLeuValNHOH] (Boc-GPLV-{NHOH})", "values": [{"measurement": "Inhibition (%) Bacterial collagenase", "setting": "[2]; at 3.4 × 10^-2 M", "value": 50.0, "unit": "%"}]}
{"compound": "CC(C)C[C@H](NC(=O)[C@@H]1CCCN1C(=O)CNC(=O)c1ccccc1)C(=O)N[C@@H](C)C(=O)NO", "note": "[Example 34, BzGlyProLeuAlaNHOH] (Bz-GPLA-{NHOH})", "values": [{"measurement": "Inhibition (%) Urease", "setting": "[3]; at 4.0 × 10^-3 M", "value": 0, "unit": "%"}, {"measurement": "Inhibition (%) Bacterial collagenase", "setting": "[2]; at 1.2 × 10^-3 M", "value": 34.0, "unit": "%"}, {"measurement": "Inhibition (%) Trypsin", "setting": "trypsin; at 2.0 × 10^-4", "value": 0, "unit": "%"}]}
{"compound": "CC(C)C[C@@H](NC(=O)[C@@H]1CCCN1C(=O)CNC(=O)c1ccccc1)C(=O)N[C@H](C)C(=O)NO", "note": "[Example 35, BzGlyPro-D-Leu-D-AlaNHOH] (Bz-GP[dL][dA]-{NHOH})", "values": [{"measurement": "Inhibition (%) Urease", "setting": "[3]; at 3.0 × 10^-3 M", "value": 24.0, "unit": "%"}, {"measurement": "Inhibition (%) Bacterial collagenase", "setting": "[2]; at 3.0 × 10^-3 M", "value": 33.0, "unit": "%"}, {"measurement": "Inhibition (%) Trypsin", "setting": "trypsin; at 1.0 × 10^-4", "value": 2.2, "unit": "%"}]}
{"compound": "CC(C)C[C@H](NC(=O)[C@@H]1CCCN1C(=O)CNC(=O)c1ccc(N)cc1)C(=O)N[C@@H](C)C(=O)NO", "note": "[Example 41, AcOH.ABAGlyProLeuAlaNHOH] (H-[4Abz]GPLA-{NHOH})", "values": [{"measurement": "Inhibition (%) Bacterial collagenase", "setting": "[2]; at 5.0 × 10^-5 M", "value": 0, "unit": "%"}]}
